Results taken from publication PMC10291549, “Reaction Behavior of [1,3-Diethyl-4,5-diphenyl-1H-imidazol-2-ylidene] Containing Gold(I/III) Complexes against Ingredients of the Cell Culture Medium and the Meaning on the Potential Use for Cancer Eradication Therapy” (Journal of Medicinal Chemistry, 2023).

Test system: A2780V-CSC cells
Conditions: read-out: metabolic activity IC50, A2780V-CSC; 72 h incubation; mean ± SD of two or three independent experiments

With “Bromido[1,3-diethyl-4,5-diphenyl-1H-imidazol-2-ylidene]gold(I) [Complex 6]” the IC50 was 8280 ± 740 nM.
In the case of “Iodido[1,3-diethyl-4,5-diphenyl-1H-imidazol-2-ylidene]gold(I) [Complex 7]”, the IC50 is reported as 1650 ± 1230 nM.
“Bis[1,3-diethyl-4,5-diphenyl-1H-imidazol-2-ylidene]diiodidogold(III) Hexafluorophosphate [Complex 11]” was tested, and the IC50 was 1070 ± 210 nM.
Molecule `CCn1c(-c2ccccc2)c(-c2ccccc2)n(CC)[c]1=[Au+]([Cl])([Cl])=[c]1n(CC)c(-c2ccccc2)c(-c2ccccc2)n1CC.F[P-](F)(F)(F)(F)F` [Complex 9, Bis[1,3-diethyl-4,5-diphenyl-1H-imidazol-2-yliden]dichloridogold(III) Hexafluorophosphate] has an IC50 of 630 ± 60 nM.
With `CCn1c(-c2ccccc2)c(-c2ccccc2)n(CC)[c]1=[Au+]([Br])([Br])=[c]1n(CC)c(-c2ccccc2)c(-c2ccccc2)n1CC.F[P-](F)(F)(F)(F)F` [Complex 10, Bis[1,3-diethyl-4,5-diphenyl-1H-imidazol-2-ylidene]dibromidogold(III) Hexafluorophosphate] the IC50 was 760 ± 130 nM.
“Chlorido[1,3-diethyl-4,5-diphenyl-1H-imidazol-2-ylidene]gold(I) [Complex 5]” showed an IC50 of 9710 ± 1200 nM.
